Experimental findings from publication PMC10726135 are described below.

The other results are listed elsewhere or left out. At the low end of the ranking the order means little. Measured with an extract: partners may take part in the binding.

In the assay the target is T1, HNF4alpha8 (COS-7 nuclear extract) (UniProt P41235-5).
T1 sequence: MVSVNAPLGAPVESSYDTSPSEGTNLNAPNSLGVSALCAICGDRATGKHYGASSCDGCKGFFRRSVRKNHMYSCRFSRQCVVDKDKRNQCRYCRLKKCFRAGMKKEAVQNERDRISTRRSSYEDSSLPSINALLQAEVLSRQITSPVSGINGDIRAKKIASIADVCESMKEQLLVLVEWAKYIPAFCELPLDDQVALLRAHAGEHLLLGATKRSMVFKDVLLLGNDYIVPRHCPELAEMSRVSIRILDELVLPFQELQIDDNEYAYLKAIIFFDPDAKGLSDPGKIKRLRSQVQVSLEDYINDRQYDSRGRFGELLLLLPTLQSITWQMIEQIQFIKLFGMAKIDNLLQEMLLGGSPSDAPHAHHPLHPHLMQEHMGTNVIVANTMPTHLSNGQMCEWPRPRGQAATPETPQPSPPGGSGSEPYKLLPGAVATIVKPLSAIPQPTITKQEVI
The assay is described as follows: protein-binding microarray. The following applies: COS-7 nuclear extract on double-stranded Agilent 4x180k PBM; binding buffer, salt, pH and temperature not given; high values mean tight binding; double strand, one strand shown; sequences stand for … in …GCCTAGGGAGATTAGAGTATCGGTCGA
With GGGGAGGGCAGGGTCAGAACCTGCCCATGA, the binding signal (log2 normalized intensity) came out at 0.0112.

As to TCGTGATAGTGACCACCTGGTGGACCCAGC, the binding signal (log2 normalized intensity) was found to be 4.2.

For TCTTGTTTGCTAAGTGAGAACACCGTGTAC, the binding signal (log2 normalized intensity) is 1.73.

Turning to ATAAAGAACTCTAAGCAGCGAAGCTGTGTC, the binding signal (log2 normalized intensity) was -1.27.

For CCCGCAGCCCAGTCTTGGCCCCACCGGTCA, the binding signal (log2 normalized intensity) was found to be 2.47.

On to GTGTGTTTACATAACCTGCCCAAAGTGGGG, for which the binding signal (log2 normalized intensity) is 0.79.

As to GGTTGAATTTCAGAGGGAAGAGGAAGCATC, the binding signal (log2 normalized intensity) is -1.23.

For the sequence CAGGCAACCAAGGGTACACACCGTTAGCCA, the binding signal (log2 normalized intensity) was -1.36.

With CACTGTATCAGGGAGATAGTCTGAGAGTCA, the binding signal (log2 normalized intensity) was -1.25.

For the sequence GAATGCCTAGGGGGAAGCCCCTGCTTCCGG, the binding signal (log2 normalized intensity) is -1.36.

In the case of CAAAGTGCGACAGGGAGATTTCCTGGGAGA, the binding signal (log2 normalized intensity) is -1.22.

For the sequence ACTCTAAAGGGAATAACCTTTGAGCTGAGT, the binding signal (log2 normalized intensity) is 5.63.

With AACTTGAAGCAGGCAGGCAGCTTCCAGGTG, the binding signal (log2 normalized intensity) was -1.24.

For the sequence TTCTGCCCCTTGCTCCTGCTTGCTGGCTTT, the binding signal (log2 normalized intensity) was 1.35.

For ACAAGTGTGATTTTTAGATAGTGACTTGAA, the binding signal (log2 normalized intensity) came to 0.56.

In the case of CTGGGTTATGATCCTGGCTCTCCCACTTAT, the binding signal (log2 normalized intensity) amounted to 0.654.

For the sequence AAAAGGGCAAAACTGTCACAAGAAAGGCAG, the binding signal (log2 normalized intensity) is -1.31.

For AAGGCTGCAAGCAAACCTGCCCTTTGCTCC, the binding signal (log2 normalized intensity) was determined as 6.42.

As for GAGGGTAAATTCCTTCTTTCTCTCTCCCTT, the binding signal (log2 normalized intensity) came to 1.61.

Turning to CTCATAGCTCCAGAGCCACCGCTACCACAC, the binding signal (log2 normalized intensity) was -1.32.

Take AGGCTCCCTGGCCACAGGAATGTGACCTTC: the binding signal (log2 normalized intensity) is 6.28.

For AGTCCAACTTCTGCAGGCACCTGGCTCGAC, the binding signal (log2 normalized intensity) was -1.25.

Turning to CTTAATTTTCTCCTTTCCTCCTATGTCAAT, the binding signal (log2 normalized intensity) came to 1.02.

As to AGGGCCCTTCACTATTTTCAAAGGTCAACA, the binding signal (log2 normalized intensity) was 4.6.

In the case of AGGGAGGTGATTGGTGAGTCTTAGGGAGGG, the binding signal (log2 normalized intensity) is -1.45.

Consider CCCTCCCCCTGCATGAACCTTTGCTCCCTG, for which the binding signal (log2 normalized intensity) was 6.27.

As for GCTCAGCGGTTACTTCGAGTACATTGTAAC, the binding signal (log2 normalized intensity) is 0.883.

TTCCCACATTGCTCTCCCATAAGAATCCTT: the binding signal (log2 normalized intensity) was determined as 0.0857.

Consider GGTGGTGAAAGTCAACAAGATTCCTTGAGC, for which the binding signal (log2 normalized intensity) is -1.35.

For the sequence GTCTAGATGCTGGGCAGCTTGTGTGCGTTT, the binding signal (log2 normalized intensity) was found to be 1.16.

GCGGATCCAACCTGTTCTTTTGAGCTGTGG: the binding signal (log2 normalized intensity) was determined as 0.726.

Consider TCAACCCCCACTTCCTGACTTGGCCTGAAC, for which the binding signal (log2 normalized intensity) stood at 3.06.

Consider GCAAAGGTCAGGAGTTCCATTTAGCTTCAG, for which the binding signal (log2 normalized intensity) was 0.94.

Consider AGGCCGGTTGGCCAGGTTCCTCCACCGTCA, for which the binding signal (log2 normalized intensity) was -0.785.

On to ATTGATATCACCCTCCCTATCAGCTACTCA, for which the binding signal (log2 normalized intensity) is 1.85.

Take TGAAAGTCTAAAGTTCAGTGAGATTAGGAA: the binding signal (log2 normalized intensity) is 4.28.

As to TGTTATAGCTTTTAAAGAACTGGGCGAGCC, the binding signal (log2 normalized intensity) was -0.625.

Regarding ACTGGTAACTAGGTTAATGTGAACAGACAG, the binding signal (log2 normalized intensity) is -0.0137.

For the sequence TGCTCCACCTTTGAAATCTCAAATAGCTGG, the binding signal (log2 normalized intensity) is -1.07.

Regarding GAAGATAAAGTGTCTCCCTCTGCAGCAAAG, the binding signal (log2 normalized intensity) was -1.16.

Regarding AGGTCAGGGAGTAGGTTTGATTTGTGAAAG, the binding signal (log2 normalized intensity) was 1.03.

AACAAAATAATAGTTGACCTTTGAGAACCT: the binding signal (log2 normalized intensity) worked out at 5.19.

In the case of TACTGGGGGCCACCATATGTATGTGAAGCT, the binding signal (log2 normalized intensity) is -1.29.

For the sequence GCCAAGGTACCCTGGCTTGTAATTCAAGAC, the binding signal (log2 normalized intensity) was -0.977.

For the sequence CTGGGCCAAAGGGCATTCTGGAGTTTGGAA, the binding signal (log2 normalized intensity) was determined as 3.69.

On to CCAATCTAGCAAAAATCCTGCCAAACCAGT, for which the binding signal (log2 normalized intensity) was -1.18.

As to ACATACAGGGTCTAGCAGTGCAGCGGGGTC, the binding signal (log2 normalized intensity) was 2.99.

For CTAGCAATAACCACAAGGGGGGAGCACCTC, the binding signal (log2 normalized intensity) was -1.05.

On to GAGGTGACCCCAGGGCAAAGTGCATTGGAG, for which the binding signal (log2 normalized intensity) is 4.27.

In the case of GCCAAAGGTCAGAGTTGAACCCTTGGGGCT, the binding signal (log2 normalized intensity) stood at 4.38.

In the case of GCCAGAGAGATGTCAGCCCAAGATAACCTC, the binding signal (log2 normalized intensity) is -1.07.

Regarding TCCTTTTATCTTACATGCCTTATCTGGTTC, the binding signal (log2 normalized intensity) was 1.64.

On to TAATTGCATTCTTTGATGTGCTGGGAGTCA, for which the binding signal (log2 normalized intensity) is 0.191.

Consider ATCAAGGACTGGGCTGGAACACAAAGAAAG, for which the binding signal (log2 normalized intensity) was -1.32.

As for AGGCAGGCAGCTTCCAGGTGACAGTTAGGT, the binding signal (log2 normalized intensity) was -0.969.

With GTGGGAGAAAGCTTTGGACTTTGGGCTGTG, the binding signal (log2 normalized intensity) worked out at 6.47.

For the sequence ATGATTGACAGGTTATTTCAATTACAAAGC, the binding signal (log2 normalized intensity) is 0.0291.

Consider AAGAATGGGCAGAAGTAGGATAAGGGTAGG, for which the binding signal (log2 normalized intensity) was -1.23.

Consider GGAATTTGGACTTCAGCCCAGGCTGATTAT, for which the binding signal (log2 normalized intensity) worked out at 4.7.

Take GGAAGTCCAACCTTTGCTCACTTGGGGGTG: the binding signal (log2 normalized intensity) stood at 3.03.

In the case of TGGTCAAGGGTCAGTTTCTGAGAGTGGCAA, the binding signal (log2 normalized intensity) came to 3.1.

Take TGATAAAACAAATCTACAAATGTTTCAACA: the binding signal (log2 normalized intensity) is -1.25.

As for GAAGCGCACTAAGCCGAACGCTGGGGCAAA, the binding signal (log2 normalized intensity) is -1.32.

Consider GAGACCCATTTTGGACTTTGACCTCCAAAA, for which the binding signal (log2 normalized intensity) amounted to 11.3.

With CCAAGGAGACACCCCTGCAGAAGCGGGAGA, the binding signal (log2 normalized intensity) is -1.34.

On to TTCTCTCCCCCAACCCCACCTTCATTCTTC, for which the binding signal (log2 normalized intensity) was 4.32.

Turning to TTCTCAAGGACCTAGAGCTATTCCTTTGAA, the binding signal (log2 normalized intensity) is -1.17.

Take ATGTCATGACCTTCATCAATCAGCCTGATA: the binding signal (log2 normalized intensity) came to 0.623.

Consider TAATCTTCACTTGCCACATTTATTGTGAGA, for which the binding signal (log2 normalized intensity) came out at 0.789.

For GTCCAGGCCATGCAACAGCCTCCTCACTAG, the binding signal (log2 normalized intensity) was -1.29.

Turning to GGGCTGGGTAAAATGAGAATGAGACCTGCT, the binding signal (log2 normalized intensity) was -1.2.

On to TCCGTAACCTCACAGAAATCCAAAGGTCAA, for which the binding signal (log2 normalized intensity) was 5.78.
